Source: the supplement of paper PMC4604168 (melanoma cell lines)
The other results are listed elsewhere or left out. Many values rest on one well or one pass, so single values are uncertain.
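Further: cells treated in 1,536-well plates, then fixed and DAPI-stained, with nuclei counted from automated high-throughput microscope images.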

These molecules were tested on UACC257 (assay: cell count relative to DMSO control; melanoma cells; higher = more viable cells). Settings: library dose: standard library concentration; 72 h.
In the case of NC1(c2ccc(-c3nc4ccn5c(=O)[nH]nc5c4cc3-c3ccccc3)cc2)CCC1 + O=C(Nc1cccc(Cl)c1)Nc1ncc(CCNc2ncnc3ccsc23)s1 [SNS314] (first compound 2 µM, partner dose 0.004 µM), the cell count is reported as 77.2%. For CCCS(=O)(=O)Nc1ccc(F)c(C(=O)c2c[nH]c3ncc(Cl)cc23)c1F + Cc1ccc(NC(=O)c2cccc(N(C)C)c2)cc1NC(=O)c1ccc(O)cc1 [ZM336372] (first compound 0.4 µM, partner dose 10 µM), the cell count was 89.5%. In the case of CCCS(=O)(=O)Nc1ccc(F)c(C(=O)c2c[nH]c3ncc(Cl)cc23)c1F + Nc1nc(F)nc2c1ncn2[C@@H]1O[C@H](CO)[C@@H](O)[C@@H]1O [fludarabine] (first compound 0.4 µM, partner dose 1 µM), the cell count is reported as 28.7%. CS(=O)(=O)c1ccc(C(=O)Nc2ccc(Cl)c(-c3ccccn3)c2)c(Cl)c1 [vismodegib] + C[C@@H](Oc1cc(-c2cnn(C3CCNCC3)c2)cnc1N)c1c(Cl)ccc(F)c1Cl [Crizotinib] (first compound 5 µM, partner dose 1 µM) was tested, and the cell count was 86.6%. In the case of C=C(c1ccc(C(=O)O)cc1)c1cc2c(cc1C)C(C)(C)CCC2(C)C [Bexarotene] + CC1(C)NC(=O)N(c2ccc([N+](=O)[O-])c(C(F)(F)F)c2)C1=O [nilutamide] (first compound 10 µM, partner dose 5 µM), the cell count is reported as 82.2%. Molecule NC1(c2ccc(-c3nc4ccn5c(=O)[nH]nc5c4cc3-c3ccccc3)cc2)CCC1 + C[C@@H]1CCN(C(=O)CC#N)C[C@@H]1N(C)c1ncnc2[nH]ccc12 [CP690550] (first compound 2 µM, partner dose 5 µM) has a cell count of 81.3%. In the case of CN(c1ncccc1CNc1nc(Nc2ccc3c(c2)CC(=O)N3)ncc1C(F)(F)F)S(C)(=O)=O + CC(=O)c1c(C)c2cnc(Nc3ccc(N4CCNCC4)cn3)nc2n(C2CCCC2)c1=O [palbociclib] (first compound 0.4 µM, partner dose 0.2 µM), the cell count is reported as 63.5%. In the case of C=C(c1ccc(C(=O)O)cc1)c1cc2c(cc1C)C(C)(C)CCC2(C)C [Bexarotene] + CN(C)S(=O)(=O)c1ccc2c(c1)/C(=C/c1cc3c([nH]1)CCCC3)C(=O)N2 [SU6656] (first compound 10 µM, partner dose 2 µM), the cell count is reported as 88.1%. Molecule CCCS(=O)(=O)Nc1ccc(F)c(C(=O)c2c[nH]c3ncc(Cl)cc23)c1F + O=C(O)c1ccc(-c2c[nH]c3ncc(-c4ccccc4)cc23)cc1C1CCCC1 [GSK650394] (first compound 0.4 µM, partner dose 0.8 µM) has a cell count of 86.6%. CS(=O)(=O)c1ccc(C(=O)Nc2ccc(Cl)c(-c3ccccn3)c2)c(Cl)c1 [vismodegib] + CCCS(=O)(=O)Nc1ccc(F)c(C(=O)c2c[nH]c3ncc(Cl)cc23)c1F [PLX4720] (first compound 5 µM, partner dose 0.4 µM) gave a cell count of 94.4%.

What follows are molecules tested on UACC62 in the same assay as above. Settings: library dose: standard library concentration; 72 h.
With CN(c1ncccc1CNc1nc(Nc2ccc3c(c2)CC(=O)N3)ncc1C(F)(F)F)S(C)(=O)=O + Cc1ccc(NC(=O)c2cccc(N(C)C)c2)cc1NC(=O)c1ccc(O)cc1 [ZM336372] (first compound 0.4 µM, partner dose 10 µM) the cell count was 79.1%. With C=C(c1ccc(C(=O)O)cc1)c1cc2c(cc1C)C(C)(C)CCC2(C)C [Bexarotene] + Nc1ccn([C@@H]2O[C@H](CO)[C@@H](O)C2(F)F)c(=O)n1 [gemcitabine] (first compound 10 µM, partner dose 0.002 µM) the cell count was 71.7%. CS(=O)(=O)c1ccc(C(=O)Nc2ccc(Cl)c(-c3ccccn3)c2)c(Cl)c1 [vismodegib] + CS(=O)(=O)CCNCc1ccc(-c2ccc3ncnc(Nc4ccc(OCc5cccc(F)c5)c(Cl)c4)c3c2)o1 [lapatinib] (first compound 5 µM, partner dose 4 µM) gave a cell count of 61%. In the case of NC1(c2ccc(-c3nc4ccn5c(=O)[nH]nc5c4cc3-c3ccccc3)cc2)CCC1 + Cc1cc(N2CCOCC2)cc2[nH]c(-c3c(NC[C@@H](O)c4cccc(Cl)c4)cc[nH]c3=O)nc12 [BMS536924] (first compound 2 µM, partner dose 1 µM), the cell count is reported as 74.2%. C=C(c1ccc(C(=O)O)cc1)c1cc2c(cc1C)C(C)(C)CCC2(C)C [Bexarotene] + Nc1ncn([C@H]2C[C@H](O)[C@@H](CO)O2)c(=O)n1 [decitabine] (first compound 10 µM, partner dose 0.5 µM) gave a cell count of 77.1%. NC1(c2ccc(-c3nc4ccn5c(=O)[nH]nc5c4cc3-c3ccccc3)cc2)CCC1 + Cn1c(Nc2ccc(C(F)(F)F)cc2)nc2cc(Oc3ccnc(-c4ncc(C(F)(F)F)[nH]4)c3)ccc21 [CHIR265] (first compound 2 µM, partner dose 0.4 µM) was tested, and the cell count was 44.2%. CN(c1ncccc1CNc1nc(Nc2ccc3c(c2)CC(=O)N3)ncc1C(F)(F)F)S(C)(=O)=O + C=CCn1c(=O)c2cnc(Nc3ccc(N4CCN(C)CC4)cc3)nc2n1-c1cccc(C(C)(C)O)n1 [MK1775] (first compound 0.4 µM, partner dose 0.1 µM) gave a cell count of 87.4%. For CCCS(=O)(=O)Nc1ccc(F)c(C(=O)c2c[nH]c3ncc(Cl)cc23)c1F + COc1cc(Nc2ncc(F)c(Nc3ccc4c(n3)NC(=O)C(C)(C)O4)n2)cc(OC)c1OC [Tamatinib] (first compound 0.4 µM, partner dose 2 µM), the cell count was 59.4%. Work on NC1(c2ccc(-c3nc4ccn5c(=O)[nH]nc5c4cc3-c3ccccc3)cc2)CCC1 + CN(C)S(=O)(=O)c1ccc2c(c1)/C(=C/c1cc3c([nH]1)CCCC3)C(=O)N2 [SU6656] (first compound 2 µM, partner dose 2 µM) yielded a cell count of 56.9%. CS(=O)(=O)c1ccc(C(=O)Nc2ccc(Cl)c(-c3ccccn3)c2)c(Cl)c1 [vismodegib] + NC(=O)Nc1cc(-c2cccc(F)c2)sc1C(=O)N[C@H]1CCCNC1 [AZD7762] (first compound 5 µM, partner dose 0.1 µM) gave a cell count of 69.9%. For CCCS(=O)(=O)Nc1ccc(F)c(C(=O)c2c[nH]c3ncc(Cl)cc23)c1F + OCCn1cc(-c2cnc3nnn(Cc4ccc5ncccc5c4)c3n2)cn1 [PF04217903] (first compound 0.4 µM, partner dose 5 µM), the cell count was 71.9%. Work on CS(=O)(=O)c1ccc(C(=O)Nc2ccc(Cl)c(-c3ccccn3)c2)c(Cl)c1 [vismodegib] + CC(=O)c1c(C)c2cnc(Nc3ccc(N4CCNCC4)cn3)nc2n(C2CCCC2)c1=O [palbociclib] (first compound 5 µM, partner dose 0.2 µM) yielded a cell count of 64.1%. CN(c1ncccc1CNc1nc(Nc2ccc3c(c2)CC(=O)N3)ncc1C(F)(F)F)S(C)(=O)=O + CS(=O)(=O)CCNCc1ccc(-c2ccc3ncnc(Nc4ccc(OCc5cccc(F)c5)c(Cl)c4)c3c2)o1 [lapatinib] (first compound 0.4 µM, partner dose 4 µM) was tested, and the cell count was 35.9%. With CN(c1ncccc1CNc1nc(Nc2ccc3c(c2)CC(=O)N3)ncc1C(F)(F)F)S(C)(=O)=O + Cn1c(Nc2ccc(C(F)(F)F)cc2)nc2cc(Oc3ccnc(-c4ncc(C(F)(F)F)[nH]4)c3)ccc21 [CHIR265] (first compound 0.4 µM, partner dose 0.4 µM) the cell count was 29.6%. Work on CS(=O)(=O)c1ccc(C(=O)Nc2ccc(Cl)c(-c3ccccn3)c2)c(Cl)c1 [vismodegib] + Cn1c(Nc2ccc(C(F)(F)F)cc2)nc2cc(Oc3ccnc(-c4ncc(C(F)(F)F)[nH]4)c3)ccc21 [CHIR265] (first compound 5 µM, partner dose 0.4 µM) yielded a cell count of 30.6%. Work on CS(=O)(=O)c1ccc(C(=O)Nc2ccc(Cl)c(-c3ccccn3)c2)c(Cl)c1 [vismodegib] + O=C(CCCCCCC(=O)Nc1ccccc1)NO [vorinostat] (first compound 5 µM, partner dose 0.4 µM) yielded a cell count of 69.8%. For CS(=O)(=O)c1ccc(C(=O)Nc2ccc(Cl)c(-c3ccccn3)c2)c(Cl)c1 [vismodegib] + Cc1cc(Nc2cc(N3CCN(C)CC3)nc(/C=C/c3ccccc3)n2)n[nH]1 [ENMD2076] (first compound 5 µM, partner dose 0.2 µM), the cell count was 69.7%. Work on CS(=O)(=O)c1ccc(C(=O)Nc2ccc(Cl)c(-c3ccccn3)c2)c(Cl)c1 [vismodegib] + OCc1c[nH]c2ccccc12 [Indole-3-carbinol] (first compound 5 µM, partner dose 4 µM) yielded a cell count of 105%. In the case of CN(c1ncccc1CNc1nc(Nc2ccc3c(c2)CC(=O)N3)ncc1C(F)(F)F)S(C)(=O)=O + C[C@]1(c2nc3c(C(N)=O)cccc3[nH]2)CCCN1 [Veliparib] (first compound 0.4 µM, partner dose 7 µM), the cell count is reported as 57.9%. C=C(c1ccc(C(=O)O)cc1)c1cc2c(cc1C)C(C)(C)CCC2(C)C [Bexarotene] + Cc1ccc(NC(=O)c2cccc(N(C)C)c2)cc1NC(=O)c1ccc(O)cc1 [ZM336372] (first compound 10 µM, partner dose 10 µM) gave a cell count of 73%. Work on CCCS(=O)(=O)Nc1ccc(F)c(C(=O)c2c[nH]c3ncc(Cl)cc23)c1F + CC1(C)NC(=O)N(c2ccc([N+](=O)[O-])c(C(F)(F)F)c2)C1=O [nilutamide] (first compound 0.4 µM, partner dose 5 µM) yielded a cell count of 48.6%.
